± gives the standard deviation of the averaged measurements. Some of the results follow.
tested on: PfAP2-LT AP2 domain (GST-tagged); experiment: gcPBM binding intensity (ln(normalized median fluorescence intensity)); higher = stronger DNA binding
Procedure, shortened: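 GST-fused DNA-binding domains of P. falciparum, expressed in E. coli, were applied at about 25 μg on average for 1 h to an Agilent 4 × 180k array of primer-extended double-stranded 36-bp intergenic genomic probes and negative controls. Binding intensity is the highest Masliner-normalised natural-log median intensity across replicate spots of either probe orientation, measured with Alexa488 anti-GST antibody and a 488 nm scan.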

| Sequence | gcPBM binding intensity (ln) |
| --- | --- |
| ATTATAATTATCAAGGTGCGTGTATTATAATAAATA [GTGCAC_site9917] | 8.69 ± 0.42 |
| GGATATTATATAAAGTGTACAAGACAAATATATACA [XGTACX_site8173] | 9.07 ± 0.54 |
| AATAAATTAAATAAAAATGTTTAACATAAAATATGA [GTGCAC_negctrl_site373] | 8.52 ± 0.45 |
| ATATATCAAGGGAGTGAATGTTATGCATATGAATAT [TGCATGCA_negctrl_site573] | 8.88 ± 0.49 |
| AAATTAACAAACTGTAGTACTAACAATATATACAAA [XGTACX_site1772] | 8.92 ± 0.52 |
| AAACAAAACAACTAAGTGCATAAAAATAAAATAAAT | 9.1 ± 0.52 |
| ATTTTATTTTTTTGAAGTACGAATTCCGAGAAGAAA [XGTACX_site43] | 8.22 ± 0.35 |
| TATTCAAAAATATAAACAATGAAACAGTATAATATG [CACACA_negctrl_site1482] | 8.73 ± 0.5 |
| TATAGTTCTTCTATTTGTACATATATTATTATTTAA [XGTACX_site895] | 8.74 ± 0.42 |
| AATTTTCCATAGATTGTGCACAAATTTTTATTTTGT | 8.87 ± 0.44 |
| TTATAATCAATGAATACACACATATATTTAATTAAT [CACACA_site3613] | 8.84 ± 0.35 |
| AAGAAAAAGACTTCATGAAAAAGAATTTTTTTAATT [TGCATGCA_negctrl_site473] | 8.38 ± 0.49 |
| TAATATTATTTTTCAGTGCAATATAACCTTAGAATT [GTGCAC_site9417] | 8.34 ± 0.4 |
| ATATATTTTTTTTTTATTTTATTATTATAATTTATC [XGTACX_negctrl_site16] | 8.64 ± 0.58 |
| AACTGTAAAAAATATAAACACACATAGAAATATATA [CACACA_site8002] | 9.08 ± 0.49 |
| TATGTGTGAAAAAAATGTACATATATATAAATTATA [XGTACX_site7202] | 8.95 ± 0.44 |
| ATATATATATATAATAGTACATATATTTTGAAAGAT [XGTACX_site5800] | 8.89 ± 0.37 |
| TATTCTTACAAAAGTAGTACAATCATTCATATTTTT [XGTACX_site631] | 8.62 ± 0.45 |
| AAAAATGAAAAATGAAAAATGAAAAATGAAAAATAA [CACACA_negctrl_site695] | 8.73 ± 0.49 |
| TATATATATATAATTGTGCACATAATTTTAAACCAA | 8.78 ± 0.3 |
| TAGTTTCAAGTAGGACGTACATATAAAAGGATTTTT [XGTACX_site7136] | 8.77 ± 0.41 |
| GTTCTGTAAATACGTGCACACACAAATCACAAATGT [CACACA_site7999] | 9.42 ± 0.24 |

| Sequence | gcPBM binding intensity (ln) |
| --- | --- |
| AATTAAAAAAGTAATTAACACACAATAATGTAATGC [CACACA_site9388] | 8.98 ± 0.49 |
| AAAGAAATGAAATATACACACATACATATATACATA [CACACA_site9335] | 9.24 ± 0.32 |
| GATATATTTTATATATGTACATACAATGGTAAATAT [XGTACX_site2759] | 8.84 ± 0.38 |
| TTTTTTTTCTTTTTTTGTACATAATAATATATAAAT [XGTACX_site6778] | 8.37 ± 0.46 |
| TACATATATATTTGTTCACACACACCCAAAAAAAAA [CACACA_site8788] | 9.28 ± 0.46 |
| TCTATGTAGTTTTTATGTACTAAATAAATAAATAAA [XGTACX_site2599] | 8.19 ± 0.36 |
| TAGAAGCAGAAACACACACACATACATACACATACA [CACACA_site1467] | 9.87 ± 0.35 |
| GCATTCATTTTTAATACACACAAAAAAAAAATAAAA [CACACA_site2408] | 8.76 ± 0.36 |
| TTTTCAATATATATTTGTACTTTATTTTATGATATT [GTGCAC_negctrl_site732] | 8.85 ± 0.52 |
| TAAATGTCCTTATTTGCACACACACCGATAAGAAAT [CACACA_site5723] | 9.38 ± 0.18 |
| ACTATTAACAGTGTAGTGCAAAAAGGTTAATTATTA | 9.08 ± 0.64 |
| CTAACAACCAAACGCACACACACAAAAAAAAAAATA [CACACA_site400] | 9.95 ± 0.61 |
| TTTGAAATGATATATAAACACACATATATATATATA [CACACA_site9170] | 9.56 ± 0.3 |
| ATATTGAATTCCAACACATGCAAAACTTTCGGTTTT [TGCATGCA_site485] | 8.69 ± 0.38 |
| AACAACTATTAATTTACACACATGTATATATCTTAC [CACACA_site7459] | 9.3 ± 0.38 |
| TATTAAAAGGTGAGTACACACATATATGCGTATATA [CACACA_site2102] | 9.15 ± 0.38 |
| TATTTTACACATTTACGTACATAAATATATATATAT [XGTACX_site8788] | 8.99 ± 0.41 |
| AGACATTTTTAAGCAAAACATTCATCATCTTATAAT [CACACA_negctrl_site1539] | 8.57 ± 0.43 |
| TACGCACAAAAATATACACACACACCGATATATTTA [CACACA_site9213] | 9.74 ± 0.2 |
| TCGTGTGTAATATTATATATATATATATAATATATA [TGCATGCA_negctrl_site289] | 9.1 ± 0.25 |
| TTTTAAGGTGTGAAGGTGCAAAAAGGTAAATAGGAA | 8.97 ± 0.6 |
| TAAACAGAAGCACATACACACACTCAAAAAAAAAAA [CACACA_site3051] | 9.53 ± 0.39 |
